Data published in PubChem BioAssay AID588855 (National Center for Advancing Translational Sciences (NCATS), 2011).
Among all 410,000 compounds or so, about 5,000 (1.2%) were called active. Inconclusive means that the source gave no clear call. Such entries were picked first, then a sample of the others. Calls come from the whole dose curve; as a rule, active = well fitted inhibition curve with a large enough effect; inconclusive = small, poorly fitted or top-dose-only effect; inactive = no such curve, though single readings can be large or run the other way. A potency beside an inconclusive call is a rough fit, not a confirmed value.

Assay: qHTS for Inhibitors of TGF-b; note: nearly all actives have a fitted effect of over 65% in size
Details: HepG2 CAGA-GFP TGF-b/SMAD3 reporter, GFP fluorescence, 18 h, TGF-beta stimulated, 500 pg/mL final; series mostly up to 46.1 µM
Method in brief: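 Per well, imaged GFP fluorescence of HEPG2 CAGA-GFP cells gives the signal; cells get compound, then TGF-beta (500 pg/mL final), 18 h at 37 degrees C; %Activity versus -TGF-beta and +DMSO controls.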
Potency is the fitted concentration of half-maximal effect; tags give direction and shape of the fitted curve.

Compound	Potency
O=C(CCNC(=O)c1ccc(Br)cc1)NNC(=O)c1ccccc1O	inconclusive: 7.08 µM [inhibitor, full curve, poor fit]
Cc1cnc(NC(=O)c2cc(-c3ccccc3)nn2-c2ccccc2)s1	inactive
Cc1cc(C)c(S(=O)(=O)Nc2ccc3oc4c(c3c2)CCCC4)cc1C	inconclusive: 28.2 µM [inhibitor, single point]
COCCCNC(=O)c1ccc(CSc2nc3cccnc3n2Cc2ccc(OC)cc2)cc1	inactive
CC(CNC(=O)CCn1c(=O)c2cccn2c2ccc(F)cc21)c1ccccc1 (stereo not drawn)	inconclusive: 35.5 µM [inhibitor, partial curve, poor fit]
COc1cc(/C=N/NC2=NC(C)(C)Cc3ccccc32)cc(OC)c1OC	inactive
c1ccc(CNc2nc(-c3ccccc3)nc3ccccc23)cc1	inconclusive: 14.1 µM [inhibitor, single point]
CCC(=O)c1ccc2c(c1)N(CCCN(C)C)c1ccccc1S2	inconclusive: 35.5 µM [inhibitor, single point]
O=C(Cn1cc(SCc2cccc(F)c2)c2ccccc21)N1CCCC1	inconclusive: 35.5 µM [inhibitor, partial curve, poor fit]
Cc1ccc(C(=O)Nc2ccc3nc(SCC(=O)N4CCc5ccccc54)sc3c2)cc1	inactive
Cc1cc(C)c2c(CN3CCCCCCC3)cc(=O)oc2c1	inconclusive: 35.5 µM [inhibitor, single point]
CCn1c(COc2ccccc2)nnc1SCC(=O)Nc1cc(OC)ccc1OC	inconclusive: 35.5 µM [inhibitor, single point]
COc1ccc(CN2CCCC(C(=O)Nc3cccc(-n4cccn4)c3)C2)c(F)c1 (stereo not drawn)	inconclusive: 14.1 µM [inhibitor, single point]
COC(=O)c1ccc(NC(=O)COc2ccc(C3C(C#N)=C(N)Oc4c3ccc3ccccc43)cc2OC)cc1 (stereo not drawn)	inconclusive: 35.5 µM [inhibitor, single point]
N#CCCN(C(=O)COC(=O)c1ccc(S(=O)(=O)Nc2ccccc2)cc1)c1ccccc1	inactive
O=C(OC1CCCCC1)c1ccc(NC(=O)C2CCCCC2)cc1	inconclusive: 35.5 µM [inhibitor, single point]
COc1cccc(-c2sc3ccccc3c2-c2ccc(OCCN(C)C)cc2)c1	inconclusive: 15.8 µM [inhibitor, single point]
NC(=O)C1=C[C@H](c2ccccc2)C[C@H](OCc2ccc(CO)cc2)O1	inconclusive: 35.5 µM [inhibitor, single point]
